The whole screen tested about 110,000 compounds, of which about 230 (0.21%) showed an effect of 50% or more. Some of the results follow.
Biological target: DPAP1 (Plasmodium falciparum, UniProt Q8IIJ9)
Experiment: primary screen, percent inhibition; read by cleavage of a fluorogenic dipeptide substrate; higher = more effect of the substance
Design: species or system P. falciparum D10 trophozoite lysates; single well
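Note: 30 min substrate incubation versus DMSO and 10 µM JCP410 controls.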

Sequence of DPAP1 (Q8IIJ9 whole entry, looked up): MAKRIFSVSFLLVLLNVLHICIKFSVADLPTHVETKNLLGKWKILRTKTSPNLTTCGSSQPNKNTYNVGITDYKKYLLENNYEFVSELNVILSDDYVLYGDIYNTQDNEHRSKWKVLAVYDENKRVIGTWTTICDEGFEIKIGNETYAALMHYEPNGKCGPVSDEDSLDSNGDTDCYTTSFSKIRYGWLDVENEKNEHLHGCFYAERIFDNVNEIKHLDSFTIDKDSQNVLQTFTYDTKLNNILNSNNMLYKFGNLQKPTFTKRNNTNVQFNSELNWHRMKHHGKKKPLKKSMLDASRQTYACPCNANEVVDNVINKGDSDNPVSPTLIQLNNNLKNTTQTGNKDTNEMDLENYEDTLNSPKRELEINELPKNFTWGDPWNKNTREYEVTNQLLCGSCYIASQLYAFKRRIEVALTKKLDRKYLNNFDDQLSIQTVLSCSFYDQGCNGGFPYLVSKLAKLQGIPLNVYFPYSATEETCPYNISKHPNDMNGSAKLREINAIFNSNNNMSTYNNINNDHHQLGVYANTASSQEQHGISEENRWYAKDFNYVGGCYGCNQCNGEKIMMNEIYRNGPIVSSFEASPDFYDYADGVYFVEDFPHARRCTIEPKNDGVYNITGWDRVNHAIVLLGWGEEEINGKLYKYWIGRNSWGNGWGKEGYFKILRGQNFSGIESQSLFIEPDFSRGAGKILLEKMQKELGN

| SMILES | % Inhibition @ 10 uM [%] |
| --- | --- |
| COc1ccc(-c2cc(C(=O)Nc3cc(S(N)(=O)=O)ccc3C)c3ccccc3n2)cc1OC | 5.31 |
| CCc1ccccc1NC(=O)c1ccc(NC(C)=O)cc1 | -0.127 |
| COc1ccc(C2C(C#N)=C(SCC(=O)Nc3ccccc3)N=C3CC(C)(C)CC(O)=C32)cc1 (stereo not shown) | -1.08 |
| COc1ccccc1CCNCc1ccc(OC)c(C)c1OC | -0.467 |
| NC(=O)c1cc(C(N)=O)c(C(N)=O)cc1C(N)=O | 19 |
| Cc1cc(C)c2c(n1)nn1c(C)c(CCC(=O)NCC(C)c3ccccc3)c(C)nc21 (stereo not shown) | -4.74 |
| CC1CCN(S(=O)(=O)c2cccc3c(S(=O)(=O)N4CCC(C)CC4)cccc23)CC1 | -2.35 |
| COc1ccc(Cl)cc1NC(=O)c1ccccc1Br | -3.26 |
| CCc1ccc(S(=O)(=O)c2nnn3c2nc(O)c2ccccc23)cc1 | 11.3 |
| C=CCOc1c(Br)cc(/C=C2/C(=O)ON=C2C)cc1OC | 1.31 |
| O=C(NCc1cccnc1)C1CCN(S(=O)(=O)N2CCCC2)CC1 | -1.21 |
| O=S(=O)(c1ccccc1)N1CCSC1c1ccc(Cl)cc1 (stereo not shown) | -1.82 |
| CC(C)c1nnc(NC(=O)Cc2ccccc2)s1 | -0.836 |
| Cc1cc(N2C(=O)C(O)=C(C(=O)c3cccs3)C2c2ccc(C(C)C)cc2)no1 (stereo not shown) | 19.4 |
| Cc1ccc(C)c(S(=O)(=O)Nc2ccc(F)c(Cl)c2)c1 | 1.8 |
| Cc1ccc(O)c(/C=N/c2c(C)nn(C)c2C)c1 | 7.26 |
| CCOc1ccc(CNCc2c(C(=O)O)c(C)n(Cc3cccc(C)c3)c2C)cc1 | -5.49 |
| CC(=O)c1ccc(C(=O)N(CCN(C)C)c2nc3cc4c(cc3s2)OCCO4)cc1 | 6.78 |
| CN(C)CCN(C(=O)C1COc2ccccc2O1)c1nc2ccc(Cl)cc2s1 (stereo not shown) | 0.95 |
| O=C(c1ccc(S(=O)(=O)N2CCOCC2)cc1)N1CCN(c2ccccc2F)CC1 | -1.22 |
| CC(C)(C)NCC(=O)Nc1c2c(nc3c1CCC3)CCC2 | 1.8 |
| O=[N+]([O-])c1ccccc1S(=O)(=O)NCCOc1ccc(Cl)cc1 | 0.00784 |

| SMILES | % Inhibition @ 10 uM [%] |
| --- | --- |
| CCN(CC)CCCOc1ccccc1C(C)(C)C | -3.67 |
| COc1ccc(-c2cs/c(=N\c3cccc(C(F)(F)F)c3)n2CCCO)cc1F | 0.993 |
| NC(=O)C1CCN(Cc2nc(N)nc(Nc3ccccc3)n2)CC1 | 3.04 |
| CN1C2=C(C(=O)CCC2)C(c2ccccc2OCc2ccccc2F)C2=C1CCCC2=O | 0.147 |
| CCOC(=O)/C(C#N)=C/c1c(Oc2ccc(CC)cc2)nc2ccccn2c1=O | 3.12 |
| COc1cc(-c2nc3c(=O)n(C)c(=O)n(C)c3[nH]2)ccc1O | -1.52 |
| Cc1ccc(S(=O)(=O)c2nc(-c3cccs3)oc2S(=O)(=O)CC(C)C)cc1 | -1.22 |
| CCOCCCNC(=O)C(NC(=O)CNC(C)=O)c1ccc(C)cc1 (stereo not shown) | 1.26 |
| O=C1NC(c2ccc(Cl)cc2Cl)Nc2c1sc(=S)n2-c1ccccc1 (stereo not shown) | -3.14 |
| Cc1ccc2nc3sc(C(=O)O)cc3cc2c1 | 7.04 |
| CCc1nnc(NC(=O)c2c(C)nn(-c3ccc(F)cc3)c2-n2cccc2)s1 | -1.95 |
| COc1ccccc1OCCCN1CCOCC1 | 0.815 |
| CC(C)NC(=O)CN1Cc2ccccc2C1=O | -1.86 |
| Cc1cccc(-c2nc(CN3CCCC(C(=O)NC4CCCc5ccccc54)C3)c(C)o2)c1 (stereo not shown) | 0.689 |
| Cn1c2ccccc2c2cnn(CC(=O)NCC3CCCO3)c(=O)c21 (stereo not shown) | -7.36 |
| CCOc1cccc(-c2cc(C(=O)Nc3ccc(NC(C)=O)cc3)c3ccccc3n2)c1 | -5.26 |
| CCc1nn(CC(=O)N2CCC(C)CC2)c(=O)c2cc3sccc3n12 | 1.8 |
| C=CCNC(=O)C1CC=CCC1C(=O)Nc1ccccc1[N+](=O)[O-] (stereo not shown) | -1.91 |
| O=C(CCN1CCCCC1)Nc1ccc(F)cc1 | 2.51 |
| N#CC1=C(N)Oc2c(sc3ccccc23)C1c1ccc(Br)o1 (stereo not shown) | -9.79 |
| CCOc1ccc(N2C(=O)/C(=C/c3cc(Cl)ccc3O)C(=O)NC2=S)cc1 | 5.2 |
| Cc1ccc(OCC(=O)Nc2ccc(S(=O)(=O)N3CCCC3)cc2)c(C)c1 | -3.34 |

| SMILES | % Inhibition @ 10 uM [%] |
| --- | --- |
| CCN1CCCC1CNC(=O)Cn1nc(C)n2c(cc3cc(C)ccc32)c1=O (stereo not shown) | 6.35 |
| O=C(NCCCN1CCCC1=O)c1ccc2c(c1)ncn2C1CCCCC1 | -5.43 |
| c1ccc(CSc2nn3cnnc3s2)cc1 | -3.53 |
| Cc1ccccc1COc1ccc(/C=C2\C(=N)N3N=C(N4CCOCC4)SC3=NC2=O)cc1 | 0.0579 |
| Cc1onc(-c2ccccc2Cl)c1C(=O)N1CCc2ccccc2C1 | 3.44 |
| N#CCC(=O)NCc1cccc(Cl)c1 | -1.99 |
| CCCN(CCC)CCCNC(=O)C1c2ccccc2C(=O)N2CCc3ccccc3C12 (stereo not shown) | 7.38 |
| CCCC[C@H](NC(=O)[C@H](Cc1ccccc1)NC(C)=O)C(=O)c1nc2ccccc2o1 | -1.83 |
| Oc1oc(-c2cccc3ccccc23)nc1/C=N/C1CCCCC1 | 3.74 |
| CCOC(=O)N1CCN(c2c(N3CCN(C)CC3)c(=O)c2=O)CC1 | 1.93 |
| CC1=CC(C)C2(COC(c3cccnc3)OC2)C(C)C1 (stereo not shown) | -1.77 |
| Cc1ccccc1-c1nc(CN2CCC(C(=O)NCCCOC(C)C)CC2)c(C)o1 | -2.85 |
| Cc1ccc(O)c(C2=Nc3ccccc3C2(C)C)c1 | -3.98 |
| CC(CCc1ccccc1)NC(=O)c1cccnc1 (stereo not shown) | 1.83 |
| COCCNC(=O)CCc1nnc2ccc(N3CCC(C)CC3)nn12 | -4.02 |
| CC1(C)CC(=O)C(/C=N/Cc2cccs2)=C(O)C1 | -6.27 |
| CCCC1=C(C(=O)OCC)C(c2ccc(F)cc2)NC(=O)N1 (stereo not shown) | 4.88 |
| COc1cc(OC)c2c(C)c(CC(=O)N3CCCC3)c(=O)oc2c1 | 4.13 |
| N#Cc1c(NC(=O)c2cccc([N+](=O)[O-])c2)sc2c1CCCC2 | 4.26 |
| COc1ccc(CN2CCN(Cc3ccc4c(c3)OCO4)CC2)cc1 | -6.4 |

Source: publication PMC6919601, “Identification of Plasmodium dipeptidyl aminopeptidase allosteric inhibitors by high throughput screening” (PLoS ONE, 2019)
